# Test results as given in PubChem BioAssay AID2100 (National Center for Advancing Translational Sciences (NCATS), 2009).
# About 1,200 (0.4%) of roughly 300,000 compounds were called active. This list was built around the results that the source calls inconclusive (neither active nor inactive); the mix of calls is not that of the screen. Calls follow the shape of the dose curve; as a rule, active = well fitted inhibition curve with a large enough effect; inconclusive = small, poorly fitted or top-dose-only effect, or another doubt; inactive = no such curve, though single readings can be large or run the other way. Potencies beside an inconclusive call are fits to weak or partial responses and may not hold up.
# Biological target: Lysosomal alpha-glucosidase (Homo sapiens) (UniProt P10253)
# Experiment: qHTS Assay for Inhibitors and Activators of Human alpha-Glucosidase Cleavage of Glycogen;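 as to activity change, negative = inhibition: 0% = full enzyme reaction and -100% = no-enzyme basal signal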
# Settings: recombinant GAA, glycogen substrate, Amplex Red glucose oxidase fluorescence; activity change, negative = inhibition: at 76.4 µM (top of the series) unless noted
# In short: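 Recombinant human enzyme (4 nM); glycogen substrate; 37 C, 40 min, pH 5.0. Readout: coupled glucose oxidase/Amplex Red fluorescence.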
# Potency is read from the fitted curve at half-maximal effect.
Structure (SMILES),"activity change, negative = inhibition",Potency
Cc1cc(N2CCN(S(=O)(=O)c3ccc4c(c3)OCCO4)CC2)n2ncnc2n1,inactive: -0.306%,–
O=C(Cn1ncc2c3ccccc3n(Cc3ccccc3F)c2c1=O)N1CCCCC1,inactive: -12.7% [at 76.3 µM],–
COc1cccc(C(Nc2ccccn2)c2oc(CO)cc(=O)c2O)c1 (configuration not stated),–,"inconclusive: 22.4 µM [inhibitor, partial curve]"
COc1cccc(OC)c1OCCN(C)C,inactive: -6.72%,–
C/C(CC(=O)Nc1ccc(F)cc1)=N\NC(=O)c1ccccn1,–,"inconclusive: 5.62 µM [inhibitor, full curve]"
Cc1ccc(-c2csc3n[nH]c(=S)n23)cc1,–,"inconclusive: 24.9 µM [inhibitor, partial curve]"
Cc1ccc(NC(=O)Nc2sc(=S)n(C)c2C)cc1,–,active: 25.1 µM
CCOC(=O)c1c(NC(=O)c2cc(=O)c3ccc(C)cc3o2)sc(C)c1C,inactive: -3.61% [at 76.3 µM],–
Oc1ccc(NCc2ccc(OCc3ccccc3Cl)cc2)cc1,–,"inconclusive: 31.6 µM [activator, single point]"
N#C/C(=C\c1c(Oc2ccc(Br)cc2)nc2ccccn2c1=O)c1nc2ccccc2s1,inactive: 12.1% [at 76.3 µM],–
Cc1ccc(Cn2c(CCCNC(=O)C3CCCCC3)nc3ccccc32)cc1,inactive: -13.5% [at 76.3 µM],–
CCOc1cc(CNc2ccc(O)cc2)cc(Br)c1OCc1ccccc1F,inactive: 9.11%,–
Cc1ccc(C(=O)CNc2ccc(Cl)cc2)cc1,–,"inconclusive: 28.2 µM [activator, single point]"
Cc1ccc(NC(=O)C(=O)NCC(c2cccnc2)N2CCN(Cc3ccccc3)CC2)cc1 (configuration not stated),inactive: -12.2% [at 76.3 µM],–
CN(C)/C=C1\NC(=S)N(c2ccc(Cl)cc2)C1=O,–,"inconclusive: 25.1 µM [inhibitor, partial curve]"
Cc1ccccc1NC(=S)N/N=C1\CC(C)(C)Oc2ccc(O)cc21,–,"inconclusive: 12.6 µM [inhibitor, partial curve]"
O=C(NNc1c2ccccc2nc2ccccc12)c1ccc(O)cc1,–,active: 11.2 µM
Cc1ccc(S(=O)(=O)Nc2nc3ccc(N)cc3s2)cc1,–,"inconclusive: 28.2 µM [inhibitor, single point]"
C(=N\Nc1nc2ccccc2[nH]1)/c1cccs1,–,"inconclusive: 28 µM [inhibitor, single point]"
Cc1ccc(/C=C2/C(=O)c3ccc(C(=O)O)cc3C2=O)o1,–,"inconclusive: 39.5 µM [inhibitor, partial curve]"
O=C(NNC(=S)NCc1ccc(Cl)cc1)c1ccc(Br)o1,–,"inconclusive: 39.8 µM [inhibitor, single point]"
COc1ccc(S(=O)(=O)N(CC(=O)Nc2cccnc2)c2ccc(C)cc2)cc1OC,inactive: -11.7% [at 76.3 µM],–
Cc1ccc(O)c(NC(=O)CCS(=O)(=O)c2nc(-c3ccc4c(c3)OCO4)cc(C(F)(F)F)n2)c1,–,"inconclusive: 11.2 µM [inhibitor, full curve]"
COc1cc(C2c3c(-c4cc(C)cc(C)c4O)n[nH]c3C(=O)N2CCCO)cc(OC)c1OC (configuration not stated),–,"inconclusive: 22.4 µM [inhibitor, partial curve]"

Structure (SMILES),"activity change, negative = inhibition",Potency
CCOC(=O)c1[nH]c2ccc(OC)cc2c1NS(=O)(=O)c1ccc(Cl)s1,inactive: 6.34%,–
CCCc1cc(-c2[nH]ncc2-c2ccc3c(c2)OCCCO3)c(O)cc1OC,–,"inconclusive: 15.8 µM [inhibitor, partial curve]"
O=C(Nc1cccs1)Nc1c(F)c(F)c(F)c(F)c1F,–,"inconclusive: 28.2 µM [inhibitor, partial curve]"
CN1N=C(C(C)(C)C)CC1=O,–,"inconclusive: 50.1 µM [inhibitor, single point]"
Cc1csc(Nc2ccccc2C(F)(F)F)n1,–,"inconclusive: 28.2 µM [inhibitor, single point]"
O=C(NNC1CC(=O)N(c2ccc(Br)cc2)C1=O)c1cccnc1 (configuration not stated),–,"inconclusive: 17.8 µM [inhibitor, partial curve]"
CCOC(=O)c1[nH]c2cc(OC)c(OC)cc2c1N,–,active: 28 µM
CN(C)C(=O)c1c(NC(=O)c2ccco2)sc2c1CCCCC2,–,"inconclusive: 44.7 µM [inhibitor, single point]"
O=C(O)c1cccc(NC(=S)N/N=C/c2cccc(O)c2)c1,–,"inconclusive: 50.1 µM [inhibitor, single point]"
Cc1nc(NS(=O)(=O)c2ccccc2)sc1NC(=O)OCCN(C)C,–,active: 25.1 µM
O=C(O)c1cccc(N/N=C/c2cc(Br)cc(Br)c2O)c1,–,"inconclusive: 35.5 µM [inhibitor, single point]"
O=[N+]([O-])c1cc(-c2nc(-c3ccncc3)no2)ccc1NCc1ccccc1,inactive: -0.0435% [at 76.3 µM],–
Cc1ccc(Nc2c(-c3ccc(N4CCOCC4)cc3)nc3cnccn23)cc1,–,"inconclusive: 10 µM [inhibitor, partial curve]"
O=C1C([N+](=O)[O-])=C(O)c2cccc3cccc1c23,inactive: -0.72%,–
O=[N+]([O-])c1cccc(-c2ccc3nnc(SCc4ccccn4)n3n2)c1,–,"inconclusive: 3.55 µM [inhibitor, partial curve]"
Cc1cc(C)cc(N(CC(=O)NC2CCCCCC2)S(=O)(=O)c2c(C)[nH]c(=O)[nH]c2=O)c1,inactive: 3.63%,–
O=C(NNc1nc2cc3c(cc2s1)OCO3)c1ccccc1,–,"inconclusive: 10 µM [inhibitor, full curve]"
COc1ccc(Cn2c(O)c(/C=N/NC(=O)c3cccnc3)c3ccccc3c2=O)cc1,–,"inconclusive: 24.9 µM [inhibitor, single point]"
COc1ccc(O)c(/C=N/Nc2nc3ccccc3[nH]2)c1,–,"inconclusive: 39.8 µM [inhibitor, single point]"
Cc1ccc(NC2CCCN(C(=O)CCC(=O)c3ccccc3)C2)cc1C (configuration not stated),–,"inconclusive: 50.1 µM [inhibitor, single point]"
CCN(CC)CCCNC(=O)CCc1ccccc1,–,"inconclusive: 31.6 µM [inhibitor, single point]"
OC1COC(OCC2OC(OCc3ccccc3)C(O)C(O)C2O)C(O)C1O (configuration not stated),–,"inconclusive: 35.5 µM [inhibitor, single point]"
COc1ccccc1N(O)C1CC(=O)N(c2ccc(Br)cc2)C1=O (configuration not stated),–,active: 8.91 µM
